# From the supplement of paper PMC12217912
# Some of the results follow. The full chains were built here from the parent and the listed change. Values near 0.05 are background.
# B1: TEV protease; numbered along this chain (parent)
# chain: MGESLFKGPRDYNPISSSICHLTNESDGHTTSLYGIGFGPFIITNKHLFRRNNGTLVVQSLHGVFKVKDTTTLQQHLVDGRDMIIIRMPKDFPPFPQKLKFREPQREERICLVTTNFQTKSMSSMVSDTSCTFPSGDGIFWKHWIQTKDGQCGSPLVSTRDGFIVGIHSASNFTNTNNYFTSVPKNFMELLTNQEAQQWVSGWRLNADSVLWGGHKVFMVKPEEPFQPVKEATQL
# Variants of: B1
# Assay: raw area under fraction-flipped curve 0-4 h after induction (AUC4h, not background-subtracted), DNA-recorder readout of cleavage of the substrate (dimensionless); higher = more cleavage of the substrate by the protease variant
# Settings: temperature: 34 °C; time window: 0-4 h after rhamnose induction
# Method: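 In vivo DNA recorder in E. coli TOP10(DE3) ΔrhaA at 34 °C. Each TEVp single-site mutant (parent TEVp 0) is paired with a single-site variant of the 7-mer TEVs (canonical ENLYFQ|S). The substrate sits between flexible linkers in a Bxb1-sfGFP-TEVs-SsrA fusion, so cleavage stabilises Bxb1 and speeds flipping of a recombination array, read by NGS. The value is the raw area under the fraction-flipped curve over 0-4 h after rhamnose induction (AUC4h), with ≥20 reads per time point. It is not background-subtracted; inactive controls average about 0.047.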
# 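Also: Bxb1 expression induced with 0.2% (w/v) L-rhamnose at OD600 near 0.5, cultures sampled hourly, flipped fraction per protease–substrate barcode pair counted by paired-end Illumina sequencing.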
Variant,area with substrate EALYFQS,area with substrate ECLYFQS,area with substrate EDLYFQS,area with substrate EELYFQS,area with substrate EFLYFQS,area with substrate EGLYFQS,area with substrate EILYFQS,area with substrate EKLYFQS,area with substrate EMLYFQS,area with substrate EPLYFQS,area with substrate EQLYFQS,area with substrate ERLYFQS,area with substrate ESLYFQS,area with substrate ETLYFQS,area with substrate EVLYFQS,area with substrate EWLYFQS,area with substrate EYLYFQS,area with substrate EHLYFQS,area with substrate ELLYFQS
P89E,0.0358,0.102,0.0963,0.115,0.0877,0.0889,0.0949,0.106,0.109,0.0882,0.0981,0.0921,0.0999,0.112,0.0854,0.0876,0.117,,
P89F,0.0972,0.0728,,0.0682,0.0802,,0.0742,,,0.076,0.0954,,0.0555,,0.0584,0.0756,0.064,0.0788,
G80H,0.121,0.13,0.128,0.132,,0.0403,0.102,,,0.161,0.134,0.102,0.104,0.121,0.107,0.082,,,0.0949
I110H,0.0646,0.0631,0.0727,0.0422,0.0362,0.0708,0.062,,,0.0535,0.0605,,0.0518,,0.0644,0.0489,0.0678,0.0666,0.0438
I86R,0.0379,0.0416,0.0682,0.0533,0.0407,,0.033,,0.0439,,0.0446,0.0403,,,0.0431,,,,0.0285
I86F,0.0776,0.101,,0.0986,0.0828,0.0851,0.0849,0.0812,0.0951,,0.099,0.0806,0.088,0.1,0.0966,0.0727,,,0.0768
L73G,0.044,0.0359,0.0511,0.0565,0.0336,0.0519,0.051,0.0327,,0.0302,0.0613,0.0494,0.0568,,0.0433,0.0521,,,0.053
T71A,0.127,0.0997,0.117,0.123,0.0883,0.0806,0.0853,0.103,0.0931,0.086,0.0867,0.0718,0.0832,0.118,0.105,0.066,,0.109,
T71F,0.0991,0.0918,0.0966,0.116,0.0744,0.062,0.075,0.0825,0.0909,,0.103,0.0623,0.0818,0.0936,0.0842,,,,0.0701
K90I,0.118,0.107,0.101,0.156,0.0688,0.0551,0.0845,0.104,0.0976,0.118,0.132,0.105,0.105,0.124,,,,0.137,0.0997
K90F,0.119,0.115,0.123,0.145,,,0.0867,0.117,,,0.118,,0.0955,,,0.104,0.0867,,0.0841
Q105N,0.128,0.116,0.12,0.157,0.111,0.102,0.124,0.103,0.118,0.132,0.0914,0.0909,0.116,,0.0935,0.0906,0.0954,0.114,0.0748
Q105K,0.0609,0.102,0.128,0.134,0.118,0.117,0.102,0.111,0.116,0.133,0.113,0.105,0.124,0.125,0.102,0.0862,,0.117,0.109
Q105T,0.125,0.105,0.121,,0.0981,,,,,,0.0873,,0.0787,,0.0915,0.0789,,,0.0937
D69Q,0.0742,0.103,0.123,0.123,,,0.078,0.0975,,0.141,0.104,0.0925,0.0887,,0.0587,0.0651,0.0895,,0.0753
R109C,0.0695,0.0964,0.117,,,0.082,0.0867,0.0995,0.091,0.151,0.142,0.0831,0.104,0.15,0.098,,0.101,,
R109P,0.114,0.11,0.138,0.114,0.0925,0.129,0.0838,0.1,0.112,,0.106,0.114,0.105,,0.0811,0.1,0.114,0.118,
P104Y,0.0546,0.0557,0.0522,0.055,0.0617,0.0545,0.0452,0.0359,0.0704,0.0622,0.0525,0.0491,0.0507,,0.0549,,0.0545,0.0451,0.0508
R81G,0.0875,0.101,0.109,,,0.123,0.0745,0.0865,,,0.0862,0.0948,0.0944,,0.074,,,,0.0828
R81I,0.151,0.116,0.119,,,0.0711,0.0753,,,,0.132,0.108,0.126,,,0.131,,,0.0922
R106I,0.126,0.119,0.137,0.135,0.099,0.116,0.0764,0.109,0.102,,0.139,0.103,0.109,0.121,0.0683,0.108,,,
K98Q,0.124,0.112,0.136,,,,,0.116,0.0929,0.105,0.112,0.1,0.108,0.109,0.0801,0.105,,0.101,
F95R,0.0752,0.0463,0.0937,0.078,0.0668,0.0713,0.0554,0.0605,0.0727,,0.0939,0.0843,0.066,,,0.0654,,0.078,
F95S,0.108,0.108,,0.0945,0.0814,0.0577,0.0853,0.0901,0.0943,0.005,0.0806,0.0808,0.0736,0.102,0.0951,0.0729,,,0.0883
